The campaign covered roughly 110,000 compounds. About 230 (0.21%) showed an effect of 50% or more. The list shows a part of the results.
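Note: 30 min substrate incubation versus DMSO and 10 µM JCP410 controls.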

The target in this assay is DPAP1 (Plasmodium falciparum, UniProt Q8IIJ9). The experiment in a line: primary screen, percent inhibition; read by cleavage of a fluorogenic dipeptide substrate; higher = more effect of the substance. Details: species or system P. falciparum D10 trophozoite lysates; single well.
Sequence of DPAP1 (Q8IIJ9 whole entry, looked up): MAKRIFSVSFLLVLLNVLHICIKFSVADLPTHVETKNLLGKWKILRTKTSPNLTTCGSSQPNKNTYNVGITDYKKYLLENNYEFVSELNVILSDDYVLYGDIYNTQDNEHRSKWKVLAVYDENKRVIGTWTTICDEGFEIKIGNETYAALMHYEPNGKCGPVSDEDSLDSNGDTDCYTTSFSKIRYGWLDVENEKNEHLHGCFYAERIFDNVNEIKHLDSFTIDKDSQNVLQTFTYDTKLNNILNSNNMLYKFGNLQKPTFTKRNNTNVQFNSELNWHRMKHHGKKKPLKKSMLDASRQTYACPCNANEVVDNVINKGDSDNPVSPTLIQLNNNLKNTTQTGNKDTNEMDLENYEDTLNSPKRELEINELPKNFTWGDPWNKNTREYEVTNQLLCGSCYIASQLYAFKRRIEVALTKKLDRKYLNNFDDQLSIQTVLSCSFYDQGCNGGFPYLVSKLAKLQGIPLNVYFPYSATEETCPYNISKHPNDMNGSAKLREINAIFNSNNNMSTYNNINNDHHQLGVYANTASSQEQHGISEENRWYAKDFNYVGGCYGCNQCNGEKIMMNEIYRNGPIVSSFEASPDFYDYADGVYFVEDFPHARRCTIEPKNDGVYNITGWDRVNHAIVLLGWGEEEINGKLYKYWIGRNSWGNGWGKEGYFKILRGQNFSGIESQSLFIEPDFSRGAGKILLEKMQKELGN
As for `CCC(=O)c1ccc(N2CCN(C(=O)c3cccc(F)c3F)CC2)c(F)c1`, the “% Inhibition @ 10 uM” value turned out to be 1.59%.
Under `CCN(CCO)Cc1cc2cc(Br)ccc2s1` stands 1.03%; under `CC(C)c1ccc(/C=C/C(=O)Nc2ccccc2Br)cc1`, -2%; under `CCOc1ccc(Br)cc1/C=C/c1nc(O)c([N+](=O)[O-])c(O)n1`, -4.21%.
Under `Nc1c(-c2nc(-c3cccs3)no2)nnn1-c1ccccc1F` stands 4.48%; under `O=C(Nc1nnc(C2CCCC2)s1)C(=O)c1c[nH]c2ccccc12`, -2.84%.
Regarding `CCCNC(=O)NCc1cccn1Cc1ccccc1`, the “% Inhibition @ 10 uM” value is listed as 5.41%.
Under `Cc1cc(OCC(=O)Nc2cc(Cl)ccc2Cl)ccc1Br` stands -5.11%; under `Cc1c(C)n(C(=O)CSc2ccccn2)c2ccccc12`, 2.56%.
The same measure for `N#CCNC(=O)[C@H](Cc1ccccc1)NC(=O)N1CCN(Cc2ccccc2)CC1`: -3.97%; for `COc1ccc(-c2cn3ccccc3c2S(=O)(=O)c2ccc(F)cc2)cc1OC`: -1.71%; for `Cc1ccc(C2=NN(C(=O)CCCC(=O)O)C(c3ccco3)C2)cc1` (stereo not drawn): 4.67%.
In the case of `COc1ccc(/C=C(/NC(=O)c2ccco2)C(=O)Nc2ccc(C(=O)O)cc2)cc1`, the “% Inhibition @ 10 uM” value is -2.87%.
Consider `O=[N+]([O-])c1ccc(Nc2nc(-c3ccccc3)cc(-c3ccc(F)cc3)n2)cc1`, for which the “% Inhibition @ 10 uM” value is given as -3.74%.
As to `Cc1cc(C)n2nc(NCc3ccc(F)cc3)nc2n1`, the “% Inhibition @ 10 uM” value was -0.671%.
On to `Cc1cc(C)n2nc(NCc3ccccc3C)nc2n1`, for which the “% Inhibition @ 10 uM” value was -0.671%.
As to `CC(=O)N(Cc1ccc(S(N)(=O)=O)cc1)C1CC(=O)N(c2ccccc2)C1=O` (stereo not drawn), the “% Inhibition @ 10 uM” value is recorded as -9.07%.
`C=CCn1c(SCC(=O)Nc2sc3c(c2C#N)CCC3)nc2sc3c(c2c1=O)CCC3`: the “% Inhibition @ 10 uM” value is listed as -3.41%.
Under `CCc1ccc(CNC(=O)c2cc(O)nc3ccc(S(=O)(=O)N4CCCCC4C)cc23)cc1` (stereo not drawn) stands 3.66%; under `O=C(Nc1cccc(-c2cn3ccccc3n2)c1)c1ccc(Br)cc1`, 3.05%; under `CC(C)c1ccc(S(=O)(=O)/N=C2/C=C(Br)C(=O)c3ccccc32)cc1`, 5.12%.
Under `COc1cccc(CN2CCN(C(=O)c3ccc(F)cc3)CC2)c1OC` stands -8.95%; under `CN(C)CCN1CC2CCc3[nH]c4ccccc4c3C2C1` (stereo not drawn), -1.66%.
As for `COC(=O)c1cc(S(=O)(=O)NCc2ccc(F)cc2)cn1C`, the “% Inhibition @ 10 uM” value is reported as 0.655%.
Take `Cc1cccc(Oc2nc3c(c(=O)n(Cc4ccccc4F)c(=O)n3C)n2C)c1`: the “% Inhibition @ 10 uM” value is -3.5%.
`Cc1nn(-c2ccccc2)c2c1N(CC(=O)NC1CCN(Cc3ccccc3)CC1)C(=O)CS2`: the “% Inhibition @ 10 uM” value worked out at 2.14%.
The same measure for `CCCN(CCC)S(=O)(=O)c1ccc(/C(O)=C(\C#N)c2nc3ccccc3[nH]2)cc1`: -2.6%; for `c1ccc(-c2cc(-c3ccco3)no2)cc1`: -5.23%; for `CCOc1ccc([N+]2=C3CCCCCN3C(O)(c3ccc(OC)c(OC)c3)C2)cc1` (stereo not drawn): 3.83%.
As for `CCn1ncc(Br)c1C(=O)Nc1cc(C)cc(C)c1`, the “% Inhibition @ 10 uM” value is recorded as -4.89%.
Under `CCOc1ccc(N2C(=O)CC(NCc3ccccc3C(F)(F)F)C2=O)cc1` (stereo not drawn) stands 2.82%; under `O=[N+]([O-])c1ccccc1-c1ccc(CN2CCCCCC2)o1`, 1.9%.
Under `CCNC(=O)c1ccc2c(c1)c(C)c(C)n2CC` stands -0.658%; under `COc1ccc(C2N3CCCN23)cc1` (stereo not drawn), -4.74%.
The same measure for `CCOC(=O)c1c(C)[nH]c(NC(=O)NCc2cccnc2)c1C`: -0.671%; for `N#Cc1nc(COc2ccc(Br)cc2)oc1NCCN1CCOCC1`: -1.38%.
Take `COc1cccc(OC)c1C(=O)Nc1ccccc1-n1cccc1`: the “% Inhibition @ 10 uM” value amounted to 4.74%.
Under `COc1ccccc1NC(=O)C1=C(C)N=C2CCCC(O)=C2C1c1ccc(OC)c(OC)c1` (stereo not drawn) stands 2.51%; under `CC12CCC3(CO)COC(c4ccccc4O1)C2C3` (stereo not drawn), 1.29%; under `COc1cccc2cc(C(=O)NC(C)c3ccc(-n4ccnc4)cc3)c(=O)oc12` (stereo not drawn), -0.0678%.
The same measure for `Cc1nc2cc(NC(=O)NCc3ccco3)ccc2n1C`: -8.92%.
The same measure for `O=C(COc1ccc(Cl)cc1Cl)Nc1cccnc1`: -3.24%.
With `O=C(Cn1nc(C(F)(F)F)c2c1CCCC2)NCc1ccc(Cl)cc1`, the “% Inhibition @ 10 uM” value was -1.18%.
Under `Cn1c(=O)n(Cc2ccco2)c(=O)c2sc3ccccc3c21` stands -1.01%; under `COC(=O)c1ccc(-c2nc(-c3ccncc3)no2)cc1`, -10%.
The same measure for `CCC(C)c1ccc(-c2csc(N)n2)cc1` (stereo not drawn): -0.865%; for `CCOc1ccc(CN2CCN(c3ccccc3OC)CC2)cc1`: 3.16%.
The same measure for `COc1cc(/C=C2/NC(=S)NC2=O)ccc1OCCC(C)C`: 2.92%.
In the case of `c1ccc2c(OCCN3CCOCC3)cccc2c1`, the “% Inhibition @ 10 uM” value is reported as -4.01%.
Under `COc1ccc(C2c3ccc4c(OC)cccc4c3Oc3ncn4nc(-c5ccncc5)nc4c32)cc1` (stereo not drawn) stands -1.05%.
Under `Cc1nn(C)cc1CN(C)C(=O)c1cc2nc(-c3ccco3)cc(C(F)(F)F)n2n1` stands 0.64%; under `CC(C)NC(=O)c1[nH]nc2ccccc12`, 4.61%; under `CC(CNc1nc2ccccc2n2nnnc12)c1ccccc1` (stereo not drawn), 2.76%.
The same measure for `Cc1nn(C)cc1C1C2=C(CC(C)(C)CC2=O)N(c2ccccc2)C2=C1C(=O)CC(C)(C)C2`: -2.28%; for `O=C1N=C(NS(=O)(=O)c2ccccc2)S/C1=C/c1ccco1`: -0.467%; for `CS(=O)c1ccc2c(c1)C(N1CCN(CCO)CC1)Cc1ccccc1S2` (stereo not drawn): -2.8%.
Take `CCCc1cc(=O)oc2cc(OCc3ccc(C(=O)O)cc3)ccc12`: the “% Inhibition @ 10 uM” value is given as 7.75%.
Consider `CCCCCC(=O)Nc1ccc(NC(=O)C(C)C)c(OC)c1`, for which the “% Inhibition @ 10 uM” value turned out to be 4.67%.
Under `CCOC(=O)/C=C(\C)N1N=C2c3cc(OC)ccc3CCC2C1c1ccc(OC)cc1` (stereo not drawn) stands -4.49%; under `CC(C)Oc1ccccc1/C=C1\SC(Nc2ccc(C(=O)O)cc2)=NC1=O`, 2.49%; under `Cc1ccc2c(c1)C(=O)c1c(C(=O)O)cccc1-2`, 2.55%.
The same measure for `Clc1cc2c(cc1CSc1nc3cccnc3[nH]1)OCO2`: -13%; for `CCc1nc(NC(=O)Cc2csc(C)n2)sc1C(=O)OC`: -1.11%.
Take `Cc1ccc2c(c1)c1c3n2CCN(Cc2ccccc2)C3CCC1` (stereo not drawn): the “% Inhibition @ 10 uM” value was 1.26%.
The same measure for `COc1ccc(/C=C2\N=C(c3ccccc3Cl)OC2=O)cc1OC`: -6.05%; for `CC(C)(C)c1ccc(CNCc2ccco2)cc1`: 4.28%.
Under `O=C(Cc1coc2ccc3ccccc3c12)N1CCc2ccccc2C1` stands -5.14%.
The same measure for `CCn1c2ccccc2c2nnc(N3CCC(Cc4ccccc4)CC3)nc21`: -1.87%; for `COc1ccc(CN2CCN(c3ccc(Cl)cc3)CC2)cc1Br`: -5.57%; for `CC1(C)CC(=O)C2=C(C1)N(Cc1ccccc1)C(N)=C(C#N)C2c1ccc(Cl)cc1` (stereo not drawn): 2.8%.
As for `CN(Cc1ccccc1)Cc1c[nH]c2ccccc12`, the “% Inhibition @ 10 uM” value was -1.41%.
Under `Cc1ncc(CO)c(/C=N/NC(N)=S)c1O` stands 0.561%.
Under `O=C(Nc1c(C(=O)c2ccc(F)cc2)oc2ccccc12)c1ccccc1` stands -4.78%; under `COc1ccc(-c2nc(SCC(=O)NCc3ccco3)c(-c3ccc(Cl)cc3)[nH]2)cc1OC`, 1.85%; under `O=C(Cn1c(=O)sc2ccccc21)Nc1ccc(Cl)cc1Cl`, 3.68%.
The same measure for `CCOc1cccc(=O)c2c(C)n(CC3CCCO3)c(C)c12` (stereo not drawn): -3.75%; for `CN1CCN(CC(=O)Nc2cc(N(C)C)nc3ccccc23)CC1`: -1.1%.
As for `O=C(COc1ccc2ccccc2c1)Nc1ccc(Cl)cn1`, the “% Inhibition @ 10 uM” value is -4.75%.
The same measure for `O=C1N(c2ccc(Br)cc2)C2CS(=O)(=O)CC2N1c1ccc(Cl)c(Cl)c1` (stereo not drawn): 14.8%; for `COc1ccc(CNCc2ccc(OC)c(OC)c2)cc1OC`: -5.04%.
Under `N=C1N=C(Nc2cccc(C(F)(F)F)c2)c2ccccc21` stands -0.68%.
Under `CCCCCOc1ccc(/C=C/C(=O)Nc2nccs2)cc1OC` stands 23.7%; under `CCOc1ccc(OCc2cccc(C(=O)O)c2)cc1`, 5.92%; under `COc1cccc(NC(=O)CN(c2ccc(Br)cc2)S(C)(=O)=O)c1`, 1.89%.
With `COc1ccc(-c2nnc3n(CCCOC(C)C)c(=O)c4ccccc4n23)c(O)c1`, the “% Inhibition @ 10 uM” value amounted to 4.86%.
On to `COc1ccc(Br)cc1CNC(=O)c1cc(CC(C)C)on1`, for which the “% Inhibition @ 10 uM” value is recorded as -1.7%.
Consider `Cc1c(C(=O)NCCCN2CCOCC2)sc2nc3n(c(=O)c12)CCCCC3`, for which the “% Inhibition @ 10 uM” value was -4.74%.
Under `COc1cccc2c1cc1c(=O)n(CC(=O)NCCCN3CCCC3=O)nc(C)n12` stands 4.84%; under `CCOc1cc(C)c(C(C)C)cc1S(=O)(=O)NCc1cccnc1`, -4.86%; under `O=C1CN(S(=O)(=O)CCOc2ccccc2)CC(=O)N1CCc1ccccc1`, 0.0345%.
For `COc1ccc(/C=C(\C#N)c2nc3ccccc3s2)cc1Br`, the “% Inhibition @ 10 uM” value was 2.45%.
The same measure for `OC(COc1ccc(F)cc1)CN(Cc1ccccc1)CC(O)COc1ccc(F)cc1` (stereo not drawn): -4.02%; for `CC1CCCN(Cc2nc3c(c(=O)n(C)c(=O)n3C)n2Cc2ccc(F)cc2)C1` (stereo not drawn): 1.23%.
Under `Cc1ccc2[nH]c(C)c(/C=c3\sc4nc5ccccc5n4c3=O)c2c1` stands -0.178%.
As for `Nc1ccc2nc(SCC(=O)c3ccc(F)cc3)sc2c1`, the “% Inhibition @ 10 uM” value turned out to be 2.17%.
Regarding `Cc1ccc2nc(NCCC3=CCCCC3)c3nnnn3c2c1`, the “% Inhibition @ 10 uM” value came out at 3.8%.
`COc1ccc(S(=O)(=O)N2CCCN(S(=O)(=O)c3ccc(OC)c(C)c3C)CC2)c(C)c1C`: the “% Inhibition @ 10 uM” value worked out at 2.05%.
Under `CC1=Nc2cc(C)ccc2NC(c2ccccc2)=C1` stands -2.91%.
The same measure for `CCOc1cc(CNc2cc(C)ccc2C)ccc1OC`: -0.446%; for `Cn1cccc1Cc1nnc(SCC(=O)NCC2CCCO2)n1CCc1ccccc1` (stereo not drawn): 2.74%.
As to `CC(C)(C)C(=O)NC(c1ccccc1)c1c(O)ccc2ccccc12` (stereo not drawn), the “% Inhibition @ 10 uM” value was found to be 1.33%.
The same measure for `CC1=C(c2cccc(Br)c2)S(=O)(=O)N=C1Nc1ccc(Br)cn1`: -1.08%.

(Values after paper PMC6919601, “Identification of Plasmodium dipeptidyl aminopeptidase allosteric inhibitors by high throughput screening” (PLoS ONE, 2019).)
